Measured values reported in the GPR68 mutational scans of Howard et al. (2025).

B1: GPR68, Q15743 (parent)
chain: MGNITADNSSMSCTIDHTIHQTLAPVVYVTVLVVGFPANCLSLYFGYLQIKARNELGVYLCNLTVADLFYICSLPFWLQYVLQHDNWSHGDLSCQVCGILLYENIYISVGFLCCISVDRYLAVAHPFRFHQFRTLKAAVGVSVVIWAKELLTSIYFLMHEEVIEDENQHRVCFEHYPIQAWQRAINYYRFLVGFLFPICLLLASYQGILRAVRRSHGTQKSRKDQIQRLVLSTVVIFLACFLPYHVLLLVRSVWEASCDFAKGVFNAYHFSLLLTSFNCVADPVLYCFVSETTHRDLARLRGACLAFLTCSRTGRAREAYPLGAPEASGKSGAQGEEPELLTKLHPAFQTPNSPGSGGFPTGRLA

Tests used:
[1] = variants of: B1; test: cAMP reporter score (Enrich2 score, wild type = 0); higher = more signal; HEK293T, FACS bins
[2] = variants of: B1; test: surface expression score (Enrich2 score, wild type = 0); higher = more signal; HEK293T, FACS bins

Row | Variant | cAMP reporter score ([1]; pH 5.5) | cAMP reporter score ([1]; pH 6) | cAMP reporter score ([1]; pH 6, modulator: ogerin) | cAMP reporter score ([1]; pH 6.5, modulator: ogerin) | surface expression score [2]
1 | A303del | -1.03 | -0.66 | -0.993 | -0.802 | -1.81
2 | A306_F307del | 0.844 | 2 | 1.02 | 2.9 | 0.602
3 | G302_C304del | -0.296 | -0.65 | -0.408 | -0.754 | -1.1
4 | C310_R312del | -0.828 | -0.751 | -1.4 | -0.91 | -1.16
5 | A298M | 0.29 | -0.729 | 0.643 | 0.337 | 0.195
6 | A298W | 0.923 | – | 0.653 | -0.107 | 1.19
7 | A298I | 0.481 | -1.17 | -0.501 | 0.161 | 0.372
8 | A298K | 0.433 | 0.744 | 1.06 | 1.48 | 0.875
9 | A298F | 0.147 | -0.819 | -0.09 | -0.453 | -0.341
10 | A298R | -0.422 | 0.267 | -0.815 | -0.547 | -0.997
11 | A298T | 1.56 | 0.51 | 0.822 | -0.554 | 0.652
12 | A298Y | 0.366 | -0.458 | 0.369 | -0.299 | -0.146
13 | A298L | -0.103 | 1.35 | -0.202 | 0.015 | 0.797
14 | A298P | 0.259 | -0.666 | -0.043 | -1.11 | 0.378
15 | A298E | 0.433 | 0.356 | 0.223 | 0.25 | 0.003
16 | A298S | 0.217 | 0.319 | 0.464 | -0.154 | 0.184

Row | Variant | cAMP reporter score ([1]; pH 5.5) | cAMP reporter score ([1]; pH 6) | cAMP reporter score ([1]; pH 6, modulator: ogerin) | cAMP reporter score ([1]; pH 6.5, modulator: ogerin) | surface expression score [2]
17 | A298C | -0.956 | -0.963 | -1.05 | -1.12 | -0.541
18 | A298H | 0.511 | -0.03 | 0.483 | -0.567 | -0.021
19 | A298Q | -0.23 | -1.07 | -0.721 | -0.284 | -0.782
20 | A298N | 0.92 | 0.17 | 0.845 | 1.18 | 0.938
21 | A298V | -0.565 | -0.126 | -0.334 | -0.275 | -0.342
22 | A298G | 0.244 | -0.472 | 0.207 | -0.551 | 0.053
23 | A298D | -0.063 | -1.66 | -0.162 | -0.527 | 0.193
24 | A319_P321del | 1.12 | – | 2.37 | 1.64 | 1.62
25 | T313_G314del | 0.105 | 0.436 | 0.608 | 0.198 | 0.197
26 | L300A | -0.422 | – | -0.626 | -0.419 | -0.302
27 | L300D | -1.42 | -1.15 | -1.09 | -1.34 | 0.369
28 | L300V | -0.339 | 0.026 | -0.55 | -1.24 | -0.493
29 | L300H | -0.579 | -0.846 | -0.447 | -1.39 | -0.043
30 | L300P | -0.629 | -0.509 | -0.687 | -0.147 | 0.703
31 | L300R | 0.555 | – | -0.592 | – | –

Scores whose standard error is large were omitted. Two further conditions of the source, in which the scores hardly spread, are not listed. Read del as a deletion of the residues named and ins as an insertion between two positions. For some assays here: The data file names ogerin without a concentration.
